{"source": "ChEMBL document CHEMBL4888484", "about": "“Replenishing the malaria drug discovery pipeline: Screening and hit evaluation of the MMV Hit Generation Library 1 (HGL1) against asexual blood stage Plasmodium falciparum ,using a nano luciferase reporter read-out” (2022)", "note": "The whole screen tested about 150,000 compounds, of which about 540 (0.36%) showed an effect of 50% or more. The list shows a part of the results."}
{"test_system": "Plasmodium falciparum", "test": "Primary screen in NF54 nanoGlo assay, in single point, at 2uM, 72h; a lower Z score goes with more inhibition", "assay_type": "functional, Erythrocyte", "details": "timepoint 72 hour", "units": {"% Inhibition": "%"}}
{"compound": "CC(=Cc1ccccc1)CNCCNc1ncccn1", "% Inhibition": -10, "Z score": 1.03}
{"compound": "Cc1cccc(CC2(O)CCN(C(=O)c3cc[nH]c(=O)c3)CC2)c1", "% Inhibition": -5, "Z score": 0.97}
{"compound": "O=C1COc2ccc(Cl)cc2N1Cc1nc(-c2ccc(S(=O)(=O)N3CCCC3)cc2)no1", "% Inhibition": -8, "Z score": 1.23}
{"compound": "O=S(=O)(c1cccc(Cl)c1F)N(Cc1ccccn1)C1CC1", "% Inhibition": 13, "Z score": -1.93}
{"compound": "CN1CCN(C(=O)CCNS(=O)(=O)c2cccc(F)c2F)CC1", "% Inhibition": -1, "Z score": 0.11}
{"compound": "CC(=O)Nc1cc(Br)cnc1C", "% Inhibition": -6, "Z score": 0.78}
{"compound": "Cc1cnc(C(=O)N2CCCN(CC3CC3)[C@H](C(C)C)C2)cn1", "% Inhibition": 10, "Z score": -1.25}
{"compound": "CCCc1nc2n(n1)C1(CCCCC1)[C@@H]1CCCC[C@@H]1N2", "% Inhibition": -17, "Z score": 1.5}
{"compound": "CCN1CCC(N(C)CCS(=O)(=O)c2cccc(C#N)c2)CC1", "% Inhibition": -5, "Z score": 0.52}
{"compound": "CCn1cnnc1CCNC(=O)c1cccc(C)n1", "% Inhibition": -27, "Z score": 3.47}
{"compound": "O=C(Cc1ccc(Cl)cc1F)NC1CC2CCC1C2", "note": "(stereo not given)", "% Inhibition": -20, "Z score": 1.77}
{"compound": "CC1=CC[C@H]2CN(C(=O)c3ccc4ncccc4c3)C[C@H]2C1", "% Inhibition": -15, "Z score": 1.92}
{"compound": "Cn1ccc2ccc(CN3CC[C@H](C(C)(C)O)C3)cc21", "% Inhibition": -17, "Z score": 2.26}
{"compound": "C#CC(CC)(CC)NC(=O)Cc1cccc(C)c1", "% Inhibition": 0, "Z score": 0}
{"compound": "O=C(c1snc(O)c1Cl)N1CCO[C@H](C2CCC2)C1", "% Inhibition": -4, "Z score": 0.77}
{"compound": "Cc1ccc(CNC(=O)[C@H]2CCc3cn[nH]c3C2)cc1", "% Inhibition": 0, "Z score": 0.08}
{"compound": "CN(Cc1nnc2n1CCOCC2)C(=O)Nc1ncc(C(C)(C)C)s1", "% Inhibition": 0, "Z score": 0.05}
{"compound": "O=C(Cc1ccc(O)cc1Cl)Nc1nccn1Cc1ccccc1Cl", "% Inhibition": 12, "Z score": -1.56}
{"compound": "CC(C)Cc1cc(C(=O)N(C)Cc2cc3cc(F)ccc3[nH]2)nc(N)n1", "% Inhibition": -9, "Z score": 1.08}
{"compound": "CC(C)(NC(=O)C(F)(F)F)C(=O)NCc1nc(C(F)(F)F)c[nH]1", "% Inhibition": -6, "Z score": 1.27}
{"compound": "Cc1noc(C)c1Cc1nc(-c2ccsc2)no1", "% Inhibition": 1, "Z score": -0.09}
{"compound": "O=C(NC[C@H]1COc2ccccc2O1)c1ccncc1", "% Inhibition": 3, "Z score": -0.48}
{"compound": "C[C@H]1CN(C(=O)Cc2ccc3c(c2)OCO3)CC[C@]1(O)C1CC1", "% Inhibition": 3, "Z score": -0.36}
{"compound": "CCCN(Cc1cnc(OC)nc1)Cc1ccccc1F", "% Inhibition": -8, "Z score": 1.49}
{"compound": "CN(C)C[C@@H]1COCCN(C(=O)Nc2cnn(Cc3cccc(F)c3)c2)C1", "% Inhibition": -6, "Z score": 1.04}
